Measured values taken from PubChem BioAssay AID1347165 (National Center for Advancing Translational Sciences (NCATS), 2019).
Out of some 220,000 compounds screened, about 5,700 (2.6%) were called active. Inconclusive means that the source gave no clear call. Such entries were picked first, then a sample of the others. Calls follow the shape of the dose curve; as a rule, active = well fitted inhibition curve with a large enough effect; inconclusive = small, poorly fitted or top-dose-only effect; inactive = no such curve, though single readings can be large or run the other way. A potency beside an inconclusive call is a rough fit, not a confirmed value.

Target: Lysine-specific demethylase 5B (Homo sapiens) (UniProt Q9UGL1)
Chain of UniProt Q9UGL1 (Q9UGL1 whole entry, looked up): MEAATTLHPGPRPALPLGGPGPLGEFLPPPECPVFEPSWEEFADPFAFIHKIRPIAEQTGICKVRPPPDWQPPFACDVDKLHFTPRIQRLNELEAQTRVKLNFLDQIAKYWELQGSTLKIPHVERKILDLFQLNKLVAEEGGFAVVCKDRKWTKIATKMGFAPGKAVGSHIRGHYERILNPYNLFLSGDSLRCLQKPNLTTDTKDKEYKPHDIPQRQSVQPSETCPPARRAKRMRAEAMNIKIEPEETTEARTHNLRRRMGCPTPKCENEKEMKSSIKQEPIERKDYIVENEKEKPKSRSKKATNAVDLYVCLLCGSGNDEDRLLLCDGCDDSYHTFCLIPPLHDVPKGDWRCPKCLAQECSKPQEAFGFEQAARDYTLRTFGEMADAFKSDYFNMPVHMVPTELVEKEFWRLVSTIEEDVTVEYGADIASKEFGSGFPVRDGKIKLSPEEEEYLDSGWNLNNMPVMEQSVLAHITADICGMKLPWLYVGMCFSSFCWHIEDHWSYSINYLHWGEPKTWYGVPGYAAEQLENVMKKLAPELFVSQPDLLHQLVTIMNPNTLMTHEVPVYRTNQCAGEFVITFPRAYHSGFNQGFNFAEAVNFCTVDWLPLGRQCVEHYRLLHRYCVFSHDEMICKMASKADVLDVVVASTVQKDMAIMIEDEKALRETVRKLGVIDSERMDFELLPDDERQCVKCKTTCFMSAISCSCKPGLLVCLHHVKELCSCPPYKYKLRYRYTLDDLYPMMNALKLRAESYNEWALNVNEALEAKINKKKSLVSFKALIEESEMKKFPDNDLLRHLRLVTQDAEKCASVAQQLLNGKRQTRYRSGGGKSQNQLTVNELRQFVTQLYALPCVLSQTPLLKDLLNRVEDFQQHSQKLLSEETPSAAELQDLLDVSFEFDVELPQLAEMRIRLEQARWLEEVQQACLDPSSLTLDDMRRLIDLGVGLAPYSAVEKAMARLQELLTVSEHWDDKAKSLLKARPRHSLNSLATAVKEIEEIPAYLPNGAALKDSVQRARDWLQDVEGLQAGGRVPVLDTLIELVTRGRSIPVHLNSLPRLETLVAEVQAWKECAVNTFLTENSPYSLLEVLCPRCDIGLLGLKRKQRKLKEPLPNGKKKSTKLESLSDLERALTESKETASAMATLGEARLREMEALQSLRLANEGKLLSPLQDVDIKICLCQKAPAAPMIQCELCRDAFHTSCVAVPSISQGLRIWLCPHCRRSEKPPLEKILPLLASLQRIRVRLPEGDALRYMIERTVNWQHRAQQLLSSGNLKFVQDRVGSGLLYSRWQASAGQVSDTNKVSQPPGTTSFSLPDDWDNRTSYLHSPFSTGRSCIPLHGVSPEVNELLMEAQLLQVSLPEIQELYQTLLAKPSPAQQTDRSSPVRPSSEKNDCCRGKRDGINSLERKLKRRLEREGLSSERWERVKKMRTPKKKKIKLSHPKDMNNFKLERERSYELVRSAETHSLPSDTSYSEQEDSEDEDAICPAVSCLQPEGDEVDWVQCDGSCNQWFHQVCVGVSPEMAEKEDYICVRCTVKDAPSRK
Experiment: Primary screen for KDM5B Histone Demethylases FDH-coupled qHTS; also: nearly all actives have a fitted effect of over 70% in size; as to activity change, negative = inhibition: 0% is about no effect
Settings: FDH-coupled NADH fluorescence (FDH is formaldehyde dehydrogenase); activity change, negative = inhibition: at 57.7 µM (top of the series) unless noted
Summary of the method: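 Here, H3K4me3 peptide (12.5 µM in substrate mix) is demethylated by KDM5BΔAP, 200 nM final, after 10 min compound exposure. Formaldehyde product is coupled through FDH (0.25 U/mL in mix) to NADH fluorescence; 30-min ΔRFU feeds dose-response curves.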
Potency is read from the fitted curve at half-maximal effect; tags tell the direction and shape of the fitted curve.

SMILES | Potency | activity change, negative = inhibition
CCn1nccc1-c1cc(C(=O)O)c2cccc(C)c2n1 | inconclusive: 31.6 µM [inhibitor, partial curve, poor fit] | 
O=C(c1ccc(C2SCCS2)cc1)N1CCN(Cc2ccccc2)CC1 | inactive | 
O=C(Nc1nc2ccc(F)cc2s1)c1nc(S(=O)(=O)Cc2ccccc2)ncc1Cl | inconclusive: 2.51 µM [inhibitor, partial curve, poor fit] | 
O=C(c1ccc(Cl)cc1)N1CC2(CCCN2Cc2ccc(C(F)(F)F)cc2)Cc2ccccc21 (stereo unspecified) | inconclusive: 44.7 µM [inhibitor, partial curve] | 
CNC(=O)c1cccc(-c2cnc(Nc3ccc(F)c(Cl)c3)c3c2CCO3)c1 | active: 35.5 µM | 
CC(C)(C)c1cc(NCc2cccnc2)n2ncc(-c3ccccc3)c2n1 | inconclusive: 22.4 µM [inhibitor, partial curve, poor fit] | 
COc1ccc(CNC(=O)c2cc3c(s2)-c2ccccc2OC3)cc1 | inconclusive: 28.2 µM [inhibitor, partial curve, poor fit] | 
COc1ccc(C(=O)N2CCC(c3nc(C4CCOCC4)no3)C2)cc1OC (stereo unspecified) | inconclusive: 28.2 µM [inhibitor, single point] | 
Cc1cc(C)n(Cc2c(C(=O)NCCc3ccccc3)noc2C)n1 | inactive | 
O=c1oc(-c2ccncc2)cc2ccccc12 | inconclusive: 22.4 µM [inhibitor, partial curve, poor fit] | 
Cc1nc(C)n(CCCNc2nccc(-c3ccccn3)n2)n1 | active: 22.4 µM | 
COC(=O)c1ccc(CNCc2ccco2)o1 | inactive | 
CCc1ccc(Cc2cnc(NC(=O)c3ccc4c(c3)CC(c3ccccc3)OC4=O)s2)cc1 (stereo unspecified) | inconclusive: 17.8 µM [inhibitor, partial curve, poor fit] | 
O=C(c1ccc(C(F)(F)F)cc1)N1CCCC2(CN[S+](=O)([O-])c3ccccc3N2)C1 (stereo unspecified) | inactive | 
Cc1cccc(C2CC(=O)Oc3c2c(=O)n(C)c2ccccc32)c1 (stereo unspecified) | inconclusive: 25.1 µM [inhibitor, partial curve, poor fit] | 
CN(Cc1ccccc1)C(=O)c1ccc2c(c1)NC(C)(COc1cccnc1)CO2 (stereo unspecified) | inconclusive: 28.2 µM [inhibitor, single point] | 
COc1ccc2scc(N3CCN(Cc4ccccc4)CC3)c(=O)c2c1 | inconclusive: 25.1 µM [inhibitor, single point] | 
Cc1c(C)n(C)c2ccc(C(=O)N3CCN(c4ccccc4)CC3)cc12 | inactive | 
O=C(CCc1cccs1)N1CCSCC1 | inactive | 
COc1ccc(-c2nc(C#N)c(NCC(C)C)o2)cc1 | inconclusive: 25.1 µM [inhibitor, partial curve, poor fit] | 
Cc1nc(N2CCCCC2)ncc1C(=O)N1C[C@@H](CN(C)C)C[C@H](CO)C1 | inconclusive: 17.8 µM [inhibitor, single point] | 
O=C(O)c1ccc(COc2ccc3ccccc3c2C=Nc2ccc(N3CCOCC3)cc2)cc1 | inconclusive: 10 µM [inhibitor, partial curve, poor fit] | 

SMILES | Potency | activity change, negative = inhibition
Cc1ccc(CC(=O)NCc2nnc3cc(-c4nc(C(C)C)no4)ccn23)cc1 | active: 25.1 µM | 
Cc1cccc(OCC(=O)N[C@@H]2CN(c3ccncn3)C[C@H]2CN(C)C)c1 | inactive | 
CCCc1c(C)nc(Nc2nc(C)c3cccc(OCC)c3n2)[nH]c1=O | inactive | 
CCOC(=O)C1CC1CN1CCC2(CC1)Cc1ccccc1CNC2=O (stereo unspecified) | inactive | 
COc1cccc2cc(-c3csc(-c4ccccc4F)n3)c(=O)oc12 | inconclusive: 25.1 µM [inhibitor, single point] | 
Cc1ccc2oc(=O)c(S(=O)(=O)N3CCN(C)CC3)cc2c1 | inconclusive: 31.6 µM [inhibitor, single point] | 
O=C(CCc1c[nH]c2ccccc12)NCCCN1CCCCC1 | inactive | 
CC1=C(c2ccc(C)cc2)S(=O)(=O)N(Cc2ccc(C(=O)Nc3ccc(F)cc3C)cc2)C1=O | inconclusive: 5.01 µM [inhibitor, partial curve, poor fit] | 
O=C(c1ccccn1)N1CCC(Nc2cccnc2)C1 (stereo unspecified) | inconclusive: 28.2 µM [inhibitor, partial curve, poor fit] | 
COc1cc(OC)cc(C(=O)NCC(c2cccs2)S(=O)(=O)c2ccc(F)c(C)c2)c1 (stereo unspecified) | inconclusive: 25.1 µM [inhibitor, single point] | 
COc1ccccc1-c1nnc2n1C(C(=O)NCc1ccc(F)cc1)CC2 (stereo unspecified) | inconclusive: 22.4 µM [inhibitor, partial curve, poor fit] | 
COc1cccc(CN(C)C(=O)CSc2nc(-c3cccs3)nc3ccccc23)c1 | inconclusive: 28.2 µM [inhibitor, single point] | 
CC1Cc2nc(SCC(=O)N3CCCC3)n(-c3ccc(F)cc3)c(=O)c2S1 (stereo unspecified) | inactive | 
Cc1ccc(CNC(=O)CCc2ncc(-c3c(F)cccc3F)o2)cc1 | inactive | 
COc1ccc(NC(=O)CSCc2cnn(-c3ccccc3)c2-n2cccc2)cc1 | inconclusive: 1.26 µM [inhibitor, partial curve, poor fit] | 
Nc1cccn2nc(-c3cccnc3)nc12 | inconclusive: 10 µM [inhibitor, partial curve, poor fit] | 
COc1cc2ccccc2cc1C(=O)Nc1ccc(Cl)c(-c2nc3ccccc3o2)c1 | inconclusive: 12.6 µM [inhibitor, partial curve, poor fit] | 
COCCNc1ncc(-c2ccc(O)c(OC)c2)c2c1OCC2 | active: 35.5 µM | 
CCCOc1ccc(OCCn2cnc3c2c(=O)n(C)c(=O)n3C)cc1 | inactive | 
CCOc1ccc(NC(=O)Cn2ccn(-c3ccc(F)c(F)c3)c(=O)c2=O)cc1 | inconclusive: 15.8 µM [inhibitor, partial curve, poor fit] | 
COc1ccc(/C=C2/SC(=S)N(c3ccc(S(=O)(=O)Nc4nccs4)cc3)C2=O)cc1 | inconclusive: 11.2 µM [inhibitor, partial curve, poor fit] | 
O=C(C1CC(=O)N(c2n[nH]c3cccc(F)c23)C1)N1CCN(c2cccc(Cl)c2)CC1 (stereo unspecified) | inconclusive: 12.6 µM [inhibitor, single point] | 

SMILES | Potency | activity change, negative = inhibition
COc1ccc(OC)c(S(=O)(=O)N2CCN(C(=O)c3cc4c(s3)CCCCC4)CC2)c1 | inactive | 
Cc1ccc(NC(=O)C(=O)NCC(c2cccnc2)N2CCN(C)CC2)cc1F (stereo unspecified) |  | inconclusive: -34.2% [inhibitor]
O=C(COc1ncnc2ccc(Br)cc12)NC(c1ccccc1)c1ccccc1 | inactive | 
N#CCSc1nc2cc(C(=O)NCc3ccccc3)ccc2c(=O)n1CCc1ccccc1 | inactive | 
COc1ccc2[nH]c(=O)c(CN(C(=O)c3cccnc3)C3CCCCC3)cc2c1 | inconclusive: 22.4 µM [inhibitor, partial curve, poor fit] | 
N#C/C(=C/c1cc(Br)ccc1OC(F)F)c1ccccn1 | inconclusive: 2.24 µM [inhibitor, full curve, poor fit] | 
CCc1ccc(NC(=O)CSc2nc3nccnc3c(=O)n2CCc2c[nH]c3ccccc23)cc1 |  | inconclusive: -35.1% [inhibitor]
CN1c2ccccc2-c2nc(SCC(=O)Nc3ccccc3Br)ncc2S1(=O)=O | inconclusive: 28.2 µM [inhibitor, partial curve, poor fit] | 
COc1ccc(-c2nc(C)c(CCNC(=O)Cc3ccc(F)cc3)s2)cc1OC | inconclusive: 25.1 µM [inhibitor, partial curve, poor fit] | 
CN1CCN(c2ccc3cc(S(=O)(=O)N4CCCC4)ccc3n2)CC1 | inconclusive: 25.1 µM [inhibitor, partial curve, poor fit] | 
N#CC(C(=O)NCc1ccccc1)=C1CCCCCC1 | inactive | 
Cc1noc(-c2ccc3c(c2)OCO3)c1C(=O)N1CCC(Cc2ccc(F)cc2)CC1 | inconclusive: 25.1 µM [inhibitor, single point] | 
O=C(Cn1nc(-c2cccs2)c2ccccc2c1=O)NCc1cccc(Cl)c1 | inactive | 
O=C(CN1CCCc2cc(F)cc(F)c21)Nc1cccc2nsnc12 | inactive | 
O=C(Nc1ccc(F)cc1)[C@H](CSCc1ccccc1)N1Cc2ccccc2C1=O | inconclusive: 1.26 µM [inhibitor, full curve, poor fit] | 
Cc1cccc(OC[C@H]2C[C@@H](NCc3c(C)noc3C)[C@H](O)[C@@H]2O)n1 | inconclusive: 28.2 µM [inhibitor, partial curve, poor fit] | 
O=C(O)c1cncnc1/C=C/c1ccc2ccccc2c1 | inconclusive: 22.4 µM [inhibitor, partial curve, poor fit] | 
COc1ccc(-c2oc3ncnc(NCCCN(C)C)c3c2-c2ccc(OC)cc2)cc1 | inconclusive: 25.1 µM [inhibitor, partial curve, poor fit] | 
Cc1cn2c(=O)c(S(=O)(=O)NCCc3ccccc3)c(C)nc2s1 | inconclusive: 31.6 µM [inhibitor, partial curve, poor fit] | 
CCOc1ccc(-c2nnc(SCC(=O)NCCC(C)C)nc2-c2ccc(OCC)c(OC)c2)cc1OC | inconclusive: 7.08 µM [inhibitor, partial curve, poor fit] | 
CC(C)OCCCNC(=O)c1ccc(-n2c(-c3ccccc3)cc3c2CCCC3)cc1 | inconclusive: 28.2 µM [inhibitor, partial curve, poor fit] | 
CCCc1cc(=O)oc2cc(C)cc(OC(C)C(=O)NCCCN(C)C)c12 (stereo unspecified) | inconclusive: 22.4 µM [inhibitor, partial curve, poor fit] | 
